From the supplement of paper PMC10126150
Sequences with one replicate were seen in a single cluster, so their values are uncertain.

Tested on: ATP
Test: switch fluorescence ratio, 500 uM ATP over buffer (Cy3 cluster intensity, sum of 5 cycles each) (fold (ratio)); higher = stronger signal-on switching upon ATP binding; sequences stand for … in TCGTCGGCAGCGTCAGATGTGTATAAGAGACAGTTTTTTTTTTTTTTTTTTTTTTTTT…TC
Conditions: aptamer strand: ATP DNA aptamer (quencher-CACCTGGGGGAGTATTGCGGAGGAAGG + anchor), 100 nM annealed; ATP concentration: 500 uM; one replicate
How it was run: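 The quencher-labelled ATP aptamer, at 100 nM, was annealed to Cy3-labelled switching-strand clusters on a modified Illumina MiSeq flow-cell. The clusters were imaged in selection buffer, then after 15 min with 500 uM ATP at 22 °C, and this buffer/ATP cycle ran five times with NaOH stripping and re-annealing between runs. Per-cluster fluorescence ratios, summed target-cycle over summed buffer-cycle Cy3 intensity, were averaged per switch-domain sequence. Clusters outside 100-1000 RFU were excluded.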
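Note: ATP exposure 15 min at 22 °C before imaging.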

Row | Sequence | switch fluorescence ratio
1 | ATGTCCGGAC | 0.994
2 | GTAGTGGTGG | 0.992
3 | TTAGCCTGCT | 1.05
4 | GAGTCTAGAT | 0.967
5 | ACGGGTCTAG | 1.01
6 | TCAACGGGTT | 1.03
7 | TCCGATCGGG | 1.01
8 | TTATGTTCCG | 0.97
9 | CTTGTTGTTG | 1.04
10 | CGTTCTATCA | 0.988
11 | CATCACATCT | 1.05
12 | CCGCGCATCT | 3.94
13 | ACATTAACCG | 1.05
14 | TAAGAGATCG | 0.922
15 | AATAGATTTG | 0.979
16 | AGCACTACCG | 1.14
17 | AGCAACGAGT | 0.983
18 | CGGCAAGGGA | 1.02
19 | GTGTTTAATA | 1.03
20 | GTGTCTCTAT | 1.03
21 | TACAAAGCCT | 1.14
22 | AGTCCACCTT | 1.07
23 | TTCTATGGG | 1.02

Row | Sequence | switch fluorescence ratio
24 | AATTGCCCTC | 1.01
25 | CCACAAAGTC | 1.17
26 | GTAAAACGAT | 0.986
27 | TACGAAGGT | 1.02
28 | GTTAATCATT | 0.984
29 | TCAAGAGTGC | 1.02
30 | ACACGGCTAC | 1.91
31 | GGCGATGGGA | 1.04
32 | GGGGGTTAAC | 0.991
33 | ATGATATGGA | 1.08
34 | AGCAGGATCT | 1.02
35 | CCCCGTATTG | 1.4
36 | GTGTAATGTT | 0.982
37 | TCACCATCTA | 1.02
38 | ACGACTATA | 1.17
39 | TGGCCTATTC | 0.964
40 | ACTATGATCT | 0.987
41 | TGTAGCTAGT | 1.04
42 | CCTGAAGGTT | 1.04
43 | GCGGTAGATC | 1.11
44 | GGACCAGCAT | 1.05
45 | CAGTTCGCG | 0.997
46 | GCTCGTCTCC | 0.98

Row | Sequence | switch fluorescence ratio
47 | TTGTCGT | 1
48 | CCGAAAGCCC | 2.99
49 | GTAAAGGTCA | 0.97
50 | CATCGCAGAG | 1.17
51 | ATCACTCGAG | 0.969
52 | CCAAGGACAA | 1.15
53 | GGACACGCGG | 1.05
54 | TGTATTTCGG | 0.976
55 | AAAGACCCGG | 1.02
56 | TCTTGAGATT | 0.956
57 | TCAAGTTCAC | 0.984
58 | AGATTTATT | 1.03
59 | CCTGGATCCA | 1.01
60 | GGTCTAGAGC | 1.02
61 | AAGCGCTCGT | 1.02
62 | TCTGCTTAGT | 0.966
63 | GACGTATCGC | 1.03
64 | ATATTCTGTG | 0.988
65 | GTAATCAGG | 1.02
66 | CATGAAAGGT | 1.03
67 | CCAGAATCTC | 1.01
68 | GGGCTGGAAC | 1.01
69 | ATTCATAACG | 1

Row | Sequence | switch fluorescence ratio
70 | GGCAGGTGAC | 1.28
71 | TGTGCGATCC | 1.52
72 | CGGAAGGGAA | 1.1
73 | GCTACCAACG | 1.21
74 | CATCATGGCT | 1.01
75 | ATCAGGAGGG | 0.996
76 | CAGTAACGGC | 0.999
77 | TGGTGGACCG | 1
78 | AGAGTATTAC | 1.02
79 | CTAACATCCT | 1.09
80 | TATATGAGTG | 1.01
81 | CTTGTGCCTG | 1.01
82 | GCCAGCAACG | 1.02
83 | TTAACATTAG | 0.976
84 | AACTATTATA | 1.02
85 | CCATCCTTAG | 1.01
86 | CGATGTCATT | 0.998
87 | GTGTAATGCG | 0.968
88 | AATTGACAGG | 1.06
89 | CAACGGCTCG | 1.05
90 | GGCAACCTCC | 2.17
91 | AAGTCACGAG | 1.05
92 | AAACTACGTG | 1.02

Row | Sequence | switch fluorescence ratio
93 | TTAAAATCCG | 1.05
94 | GGCGTTACGC | 1.05
95 | AGGAAGGATT | 1.1
96 | TTCCCAAGTC | 1.16
97 | CGTCATCGGT | 0.962
98 | ACACAAGTGG | 0.964
99 | GCGCTGGAAT | 0.991
100 | TTGGTCTTCC | 1.96
101 | GGCTTTGTTA | 0.939
102 | ACCTATGGGC | 0.99
103 | CATGTTCGAT | 0.93
104 | AATGTAACAA | 0.984
105 | GCTCAAAAGG | 1.01
106 | TATAGAGGGT | 0.983
107 | GGTAAGTCAG | 0.987
108 | GGGCTGCGTA | 0.968
109 | ACTCGCGGTC | 2.2
110 | ATAGTCGTAA | 1
111 | CCAGCGATCA | 1.37
112 | ACGGTACATG | 1.35
113 | CGTAGGGTTC | 1.02
114 | AAGGGCTCTT | 0.931
115 | GTGTCCGGCA | 1.06

Row | Sequence | switch fluorescence ratio
116 | GACGCAGACA | 1.38
117 | TCGATTGGTA | 1.01
118 | CGTTGGGATT | 1.01
119 | TCGCTACACA | 0.991
120 | GCAGACCCAT | 1.01
121 | TACGGAAAAT | 1.02
122 | TTAGGTGTGC | 0.999
123 | AGACGTAAGC | 1.09
124 | GGAACCTTGC | 1.47
125 | CTTAGGTATG | 0.993
126 | GTTTCCCAGG | 1.04
127 | TTGTCTGCTT | 1
128 | ATATACCCGA | 0.989
129 | AAAACGTGGA | 0.99
130 | GCTGACGTAA | 2.17
131 | TCTGATGTCA | 1.03
132 | CCGAAAGGCG | 1.13
133 | TGTCAATTAG | 1.05
134 | CGGTACATTA | 1.02
135 | GTTATCGGGC | 1.03
136 | ACTTAATCCG | 1.49
137 | GGGGGCTAGC | 0.878
138 | TGACGCCATT | 1.33

Row | Sequence | switch fluorescence ratio
139 | AGGTAGACTC | 1.01
140 | GCATAAATTT | 0.994
141 | CATGATATCA | 1.01
142 | GATGGTCGC | 1.08
143 | GAAGGGACAA | 1.04
144 | TAGGCCGAGA | 0.936
145 | TCCAGGCTGC | 1.12
146 | TATCGTTCAA | 1.06
147 | GGTGCATATC | 1.25
148 | GCGAGAGCCT | 1.02
149 | GATGGATGTC | 0.976
150 | TTTCCTTATA | 1
151 | TTACGGTTCG | 1.06
152 | ATAAGATTGG | 1.02
153 | ATTTCTGGGG | 0.98
154 | CCGTTATGAT | 1.07
155 | AGTTGGTAGA | 1.03
156 | CTTGGTTCCA | 1.05
157 | GGTTCCATGT | 0.989
